This note sets out measurements from paper PMC10668032.

Some of the results follow. At the low end of the ranking the order means little.

In this experiment the target is SIX1-Q177R homeodomain (UniProt Q15475). The experiment can be described thus: universal protein binding microarray. The following applies: Universal all-10-mer PBM (8x60K, AMADID 030236), 300 nM GST-tagged protein, Alexa Fluor 488 anti-GST; buffer, salt, pH and temperature not stated; high values mean tight binding; most listed sequences are background and not binding sites; double strand, one strand shown.
CATGCCGA: the binding signal was -0.241 E-score.
In the case of AACTCTTA, the binding signal turned out to be 0.0611 E-score.
Next, CCTCTATC: 0.103 E-score; GCGCTGAC: -0.189 E-score; TAATCGAA: -0.0754 E-score.
Take AAGTATGT: the binding signal was -0.117 E-score.
For CGGAGGCC, the binding signal was -0.128 E-score.
Take CCGCCTTC: the binding signal is -0.182 E-score.
CCGGCTCG: the binding signal is -0.0238 E-score.
For the sequence CTTGAGTA, the binding signal was -0.06 E-score.
With GACATCTA, the binding signal is -0.2 E-score.
On to AGCGCCTG, for which the binding signal was -0.024 E-score.
Take ATAACACC: the binding signal is 0.479 E-score.
Next, GGACGCAC: -0.0442 E-score.
On to ACACAGTA, for which the binding signal is 0.149 E-score.
CACCTTAG: the binding signal turned out to be 0.286 E-score.
Next, GCAACCGC: -0.0295 E-score; AATACACA: 0.188 E-score.
With TAACAGCA, the binding signal is -0.134 E-score.
ACCGATTC: the binding signal was -0.0142 E-score.
Turning to ACTGAACT, the binding signal was -0.0396 E-score.
As for AAAGTAAA, the binding signal was -0.0908 E-score.
GCCCACCA: the binding signal is -0.0101 E-score.
Regarding CATTGATA, the binding signal is 0.0545 E-score.
As for CTTGCCTA, the binding signal is -0.334 E-score.
Consider GACCAGGC, for which the binding signal is -0.048 E-score.
As to GGTCTAAC, the binding signal is -0.123 E-score.
Next, ACAAGTTG: 0.0381 E-score; CATCTGAC: 0.236 E-score.
Regarding AGGGGCTC, the binding signal is -0.0099 E-score.
In the case of ATAATCAC, the binding signal came out at 0.0171 E-score.
In the case of ACCTGGTC, the binding signal stood at 0.0739 E-score.
With TGATCGCA, the binding signal was -0.122 E-score.
Turning to AGTTACAT, the binding signal is -0.177 E-score.
Regarding ATACTCTC, the binding signal stood at 0.158 E-score.
For AAGACTTG, the binding signal was -0.178 E-score.
Next, ACTGGGCA: -0.116 E-score; AAGTCAGC: -0.329 E-score.
Take GAGCCGAA: the binding signal is -0.284 E-score.
For CCTACAGC, the binding signal is -0.146 E-score.
For the sequence CTTGACTA, the binding signal is -0.197 E-score.
For the sequence CAGTCCTC, the binding signal was -0.267 E-score.
For CGATTCGC, the binding signal was -0.0551 E-score.
For the sequence TCATGCCA, the binding signal was -0.23 E-score.
Next, CTAGTAGA: -0.211 E-score; GATTTGCC: -0.183 E-score.
Under TAGACATA stands -0.128 E-score; under GAATTTAC, -0.148 E-score.
Under ATTTGCAG stands -0.118 E-score; under ATTTACGC, -0.0258 E-score.
Regarding CGCGTCGA, the binding signal worked out at 0.0185 E-score.
Turning to CAGAACAC, the binding signal amounted to 0.381 E-score.
Under AAAATAAC stands 0.0114 E-score.
Turning to AAAGATTC, the binding signal was -0.0918 E-score.
Turning to AGATCCCA, the binding signal is 0.0702 E-score.
On to GTGAATCA, for which the binding signal was -0.01 E-score.
Next, ACTTCAAG: 0.14 E-score; ACTACTCA: -0.11 E-score.
Under ATGGGAAA stands -0.136 E-score; under ACAGGGAC, -0.17 E-score; under AATATGTC, -0.0328 E-score.
Under ACATGAAG stands -0.139 E-score.
Take ACTGATTC: the binding signal worked out at 0.0282 E-score.
ACATGAGA: the binding signal came to 0.0216 E-score.
Next, CGTTTTTC: 0.0383 E-score; CCCGTAAC: -0.00184 E-score.
Next, GAAACAGA: -0.357 E-score.
Consider CACAGCGC, for which the binding signal was -0.0668 E-score.
CGTCCCAG: the binding signal came to 0.0023 E-score.
GCATTAGA: the binding signal was -0.227 E-score.
Under AAGCTTGG stands -0.332 E-score.
For the sequence GCCGTCAA, the binding signal is -0.181 E-score.
AAATTGTG: the binding signal came out at 0.0835 E-score.
On to CAAAGACC, for which the binding signal was -0.265 E-score.
Consider AGACCCCT, for which the binding signal stood at 0.155 E-score.
For the sequence ATATGCAG, the binding signal is 0.00738 E-score.
For AAGTATAT, the binding signal is -0.184 E-score.
As to GACTTCCC, the binding signal is -0.245 E-score.
Consider GCCTAGCA, for which the binding signal was -0.157 E-score.
Turning to AGCGTTTA, the binding signal was -0.138 E-score.
Take AATCCCTC: the binding signal was -0.0887 E-score.
Turning to CCGCAATC, the binding signal was -0.156 E-score.
As for AGGGCTGC, the binding signal is -0.174 E-score.
In the case of ATCATGAC, the binding signal was determined as 0.0301 E-score.
Under CCAGAGAC stands -0.0693 E-score; under ACGGTTCT, -0.106 E-score; under GCAAGCGA, -0.149 E-score.
Turning to AACGACGC, the binding signal was 0.0714 E-score.
For the sequence GGAAGGAC, the binding signal is -0.168 E-score.
For the sequence TCTCCGCA, the binding signal is -0.271 E-score.
As to ACTTCCGC, the binding signal was -0.175 E-score.
Under CCAGGTTA stands 0.0783 E-score.
Turning to TGACTGCA, the binding signal is -0.0771 E-score.
For the sequence ATGCTAAA, the binding signal is -0.131 E-score.
As to ACCAAGTC, the binding signal was 0.0646 E-score.
Turning to ACAAGTTC, the binding signal was -0.231 E-score.
Turning to ATCATAGG, the binding signal is -0.164 E-score.
On to ATATTTTG, for which the binding signal is -0.188 E-score.
With ACTCTTTC, the binding signal was -0.0864 E-score.
Under GCTATAGC stands -0.22 E-score; under GTGTGCCA, 0.242 E-score; under ATAGCGTC, -0.00797 E-score.
Turning to GGTAAAGA, the binding signal was 0.118 E-score.
As to GAAACCTA, the binding signal is -0.0838 E-score.
With GGGAACCC, the binding signal was 0.184 E-score.
For the sequence CAGATGTC, the binding signal is -0.175 E-score.
For the sequence CCAGTTGC, the binding signal was -0.0315 E-score.
ACTATAGG: the binding signal is -0.0382 E-score.
As for GCCTTTCC, the binding signal was -0.106 E-score.
As for GGGCTGTA, the binding signal is -0.0971 E-score.
On to GAGTACGA, for which the binding signal was 0.0959 E-score.
For CCATCTTC, the binding signal was -0.0692 E-score.
As to ACCTACAG, the binding signal was determined as 0.121 E-score.
Consider CCTATTTC, for which the binding signal was -0.000375 E-score.
Consider AAAGGTCA, for which the binding signal is -0.0971 E-score.
With AACGTTAA, the binding signal is -0.109 E-score.
Turning to CTGGCGAA, the binding signal was -0.174 E-score.
Consider ATTACCGA, for which the binding signal was 0.0798 E-score.
In the case of ATACCCGA, the binding signal was 0.241 E-score.
As for ATCTACAA, the binding signal is -0.175 E-score.
As for ACATTCAA, the binding signal is -0.191 E-score.
Turning to CCGCTAGC, the binding signal was -0.264 E-score.
ACAGTCAC: the binding signal was -0.197 E-score.
GTTTACTA: the binding signal was 0.0676 E-score.
ATCGGGCC: the binding signal is -0.0815 E-score.
Take GGTGATAA: the binding signal came out at 0.102 E-score.
As for GATAATTA, the binding signal is -0.164 E-score.
Regarding GATTCTGA, the binding signal was -0.188 E-score.
Next, CACCAAAG: 0.308 E-score; AACCTCAG: -0.0991 E-score.
In the case of CCGGTAGG, the binding signal was -0.0661 E-score.
As to AATGTACC, the binding signal is -0.0285 E-score.
CTTGCGAA: the binding signal is 0.0707 E-score.
For the sequence GTGAATAA, the binding signal was -0.124 E-score.
As for CGAGATTA, the binding signal was -0.154 E-score.
Under AGATGATG stands -0.17 E-score; under ACTTCCTC, -0.0321 E-score.
For the sequence ACGGGAGG, the binding signal came to 0.00097 E-score.
Under GTCACCGA stands 0.175 E-score; under AGACTCCG, -0.00135 E-score; under GGGTCACA, 0.202 E-score.
AACTCGGG: the binding signal was 0.108 E-score.
Under GACGTTCA stands -0.0855 E-score; under CCGCGGCC, 0.0535 E-score.
Under ATGCGGCG stands -0.0426 E-score.
Consider ATCAATCA, for which the binding signal is -0.237 E-score.
In the case of CAAGAAGC, the binding signal is -0.164 E-score.
In the case of TCCCCCGA, the binding signal was 0.0669 E-score.
Next, ATAAGTTG: -0.151 E-score.
For the sequence ACTGGTCC, the binding signal was -0.0613 E-score.
On to TCCAGCAA, for which the binding signal was -0.109 E-score.
For the sequence CTTTGCTC, the binding signal is -0.232 E-score.
Turning to GTAGGCAC, the binding signal is 0.0564 E-score.
For the sequence CTTATTGA, the binding signal is -0.102 E-score.
For ACCGTCCC, the binding signal turned out to be 0.00799 E-score.
Regarding ACCAAGCT, the binding signal is -0.0625 E-score.
Next, ATTGACTC: 0.162 E-score.
In the case of GTGGAGCA, the binding signal was -0.012 E-score.
AACGTGAT: the binding signal is -0.0835 E-score.
In the case of ACCGAGCT, the binding signal is -0.0331 E-score.
As to AGGATCCG, the binding signal was 0.0326 E-score.
Consider GATGGGAA, for which the binding signal was 0.0399 E-score.
As to ACCATAAT, the binding signal was -0.0891 E-score.
Next, CTTGCGCA: 0.0479 E-score; AGGAACGC: -0.207 E-score; AATTAGCA: -0.0799 E-score.
Next, ACACGCCT: 0.416 E-score; ACGTACGG: 0.048 E-score.
With ATCACCCC, the binding signal worked out at 0.204 E-score.
As for GGCTAACA, the binding signal was determined as 0.0766 E-score.
As to CCCTCTCG, the binding signal is 0.0163 E-score.
In the case of GGCAGTGA, the binding signal was -0.0498 E-score.
